# The campaign covered roughly 270,000 compounds. About 620 (0.23%) were called active. Inconclusive means that the source gave no clear call. Such entries were picked first, then a sample of the others. Calls follow the shape of the dose curve; as a rule, active = well fitted inhibition curve with a large enough effect in the polarisation, with a control signal flat (not every such curve was filed as active); inconclusive = small, poorly fitted or top-dose-only effect, or effect the other way, or a change in a side signal; inactive = no such curve, though single readings can be large or run the other way; the % refers to the polarisation. A potency beside an inconclusive call is a rough fit, not a confirmed value. A note “side channel” means that the fit belongs to a control or component signal, not to the main read-out.
# Target: Menin (Homo sapiens) (UniProt O00255)
# Sequence of UniProt O00255 (O00255 whole entry, looked up): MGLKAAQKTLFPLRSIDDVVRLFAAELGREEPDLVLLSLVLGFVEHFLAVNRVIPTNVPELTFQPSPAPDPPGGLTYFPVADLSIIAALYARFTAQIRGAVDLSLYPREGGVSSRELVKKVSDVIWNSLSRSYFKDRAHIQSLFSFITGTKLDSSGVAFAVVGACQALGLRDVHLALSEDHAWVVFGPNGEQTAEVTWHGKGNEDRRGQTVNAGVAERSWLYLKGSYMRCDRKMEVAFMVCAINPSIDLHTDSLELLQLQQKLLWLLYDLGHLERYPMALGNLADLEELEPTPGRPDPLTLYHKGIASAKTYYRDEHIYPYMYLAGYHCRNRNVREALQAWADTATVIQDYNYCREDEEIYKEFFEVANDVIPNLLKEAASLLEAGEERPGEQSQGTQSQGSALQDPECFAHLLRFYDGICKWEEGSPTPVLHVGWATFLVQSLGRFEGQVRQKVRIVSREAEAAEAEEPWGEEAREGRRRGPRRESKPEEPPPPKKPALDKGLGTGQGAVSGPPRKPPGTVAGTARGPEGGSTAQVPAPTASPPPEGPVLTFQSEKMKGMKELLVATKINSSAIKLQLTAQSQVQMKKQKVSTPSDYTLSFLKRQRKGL
# Assay: qHTS Assay for Inhibitors Targeting the Menin-MLL Interaction in MLL Related Leukemias: Competition With Texas Red Labeled MLL-derived Mutant Peptide; as to FP activity change, negative = inhibition: % of control where 0% means no effect
# Settings: fluorescence polarization; FP activity change, negative = inhibition: at 61.6 µM (top of the series)
# Potency is read from the fitted curve at half-maximal effect; tags tell the direction and shape of the fitted curve or compound fluorescence and quenching.
Compound,Potency,"FP activity change, negative = inhibition"
O=C(CNC(=S)N(CCCN1CCOCC1)Cc1cccs1)N1CCCCCC1,"inconclusive: 35.5 µM [inhibitor, single point]",–
C(=C/c1nccc2c1[nH]c1ccccc12)/c1ccc2c(c1)OCO2,"inconclusive: 15.8 µM [quencher, side channel, partial curve]",–
O=C(CSc1nnc(-c2ccco2)o1)c1ccc(O)cc1O,"inconclusive: 28.2 µM [inhibitor, single point]",–
CCN(CC)CCN(C(=O)c1ccc(S(=O)(=O)N2CCCC2)cc1)c1nc2cc(C)cc(C)c2s1,"inconclusive: 11.2 µM [fluorescent, side channel, partial curve]",–
CCCc1nc2ccccc2c(=O)n1NC(=O)c1c(O)c2ccccc2[nH]c1=O,"inconclusive: 39.8 µM [inhibitor, single point]",–
CCCC(=O)N1CCN(c2ccc(NC(=O)c3ccc4c(c3)OCCO4)cc2)CC1,"inconclusive: 0.708 µM [inhibitor, full curve, poor fit]",–
CSc1nc(N)c(C#N)c(-c2ccc(Cl)cc2)c1C#N,"inconclusive: 25.1 µM [quencher, side channel, single point]",–
N#CC1=C(N)Oc2c(ccc3ccccc23)C1c1ccsc1 (stereo unspecified),"inconclusive: 39.8 µM [quencher, side channel, single point]",–
CCCCCS(=O)(=O)CCCCCCCCCCn1c(-c2ccc(O)cc2)c(C)c2cc(O)ccc21,"inconclusive: 8.91 µM [quencher, side channel, partial curve]",–
COc1ccc2nc(N3C(=O)/C(=C/c4ccc(Cl)cc4)NC3=S)sc2c1,–,inactive: -0.0087%
COc1ccc(NC(=O)c2ccccc2Oc2ccccc2)c(OC)c1,"inconclusive: 39.8 µM [quencher, side channel, single point]",–
C=CCc1c(C)nc(SCc2nc3ccccc3c(=O)[nH]2)[nH]c1=O,"inconclusive: 3.16 µM [inhibitor, partial curve]",–
CCc1ccc(CN(C)C(=O)CCc2nnc(CCc3ccccc3OC)o2)nc1,"inconclusive: 14.1 µM [fluorescent, side channel, partial curve, poor fit]",–
COc1ccc(N=Cc2c(O)[nH]c3ccccc23)cc1OC,"inconclusive: 28.2 µM [quencher, side channel, single point]",–
CCOc1cc(/C=C2\SC(=Nc3ccccc3)N(c3ccccc3)C2=O)ccc1OCC(=O)O,"inconclusive: 10 µM [quencher, side channel, partial curve]",–
CCOc1c(OC(C)=O)ccc(/C=C/c2ccc3cccc(OC)c3n2)c1[N+](=O)[O-],"inconclusive: 12.6 µM [quencher, side channel, partial curve]",–
COc1ccc(NS(=O)(=O)c2ccc(NC(=S)NC(=O)/C=C/c3ccc(C)cc3)cc2)nn1,"inconclusive: 39.8 µM [inhibitor, single point]",–
CC(C(=O)Nc1ccc(F)c(F)c1)N1CCN(C)CC1 (stereo unspecified),–,inactive: -7.95%
CCOC(=O)C1=C(CC)Nc2ccccc2N=C1NC(=O)Nc1ccc(Cl)c(Cl)c1,"inconclusive: 7.08 µM [quencher, side channel, full curve]",–

Compound,Potency,"FP activity change, negative = inhibition"
CC1(C)Cc2c(C#N)c(NCCN3CCOCC3)nc(-c3ccco3)c2CO1,–,inactive: -8.5%
COc1ccc(-c2cc(C(=O)Nc3ccccc3F)on2)cc1,"inconclusive: 22.4 µM [fluorescent, side channel, single point]",–
O=c1oc2cc(Oc3c([N+](=O)[O-])cc(C(F)(F)F)cc3[N+](=O)[O-])ccc2c2c1CCCC2,"inconclusive: 35.5 µM [quencher, side channel, single point]",–
CC[C@@]1(O)C(=O)OCc2c1cc1n(c2=O)Cc2cc3c(CN(C)C)c(O)ccc3nc2-1,–,inactive: -1.41%
CCOC(=O)C1=C(Nc2ccc(C)cc2)CC(C)(O)C(C(=O)OCC)C1c1ccccc1 (stereo unspecified),"inconclusive: 2.82 µM [inhibitor, full curve]",–
O=[N+]([O-])c1ccc(NCCCNS(=O)(=O)c2ccccc2)c(Cl)c1,"inconclusive: 22.4 µM [quencher, side channel, partial curve]",–
N#C/C(=C\c1c[nH]c2ccccc12)C(=O)Nc1ncc(Cc2ccc(Cl)cc2Cl)s1,"inconclusive: 3.16 µM [quencher, side channel, full curve, poor fit]",–
Cc1cc2nc(C)c(=O)n(C)c2cc1C,–,inactive: 8.52%
O=C(CCN1CCCC1)c1cccs1,"inconclusive: 14.1 µM [inhibitor, partial curve]",–
CCOC(=O)CCSc1nc(N2CCOCC2)c2c(c1C#N)CC(C)(C)OC2,"inconclusive: 3.16 µM [inhibitor, single point]",–
O=C(CSc1nnnn1-c1ccccc1)c1cc2ccccc2oc1=O,"inconclusive: 20 µM [quencher, side channel, single point]",–
Cc1ccc(C(=O)Nc2ccc(Nc3ccccc3)cc2)c(Cl)c1,"inconclusive: 31.6 µM [quencher, side channel, partial curve]",–
CCOC(=O)c1sc(-c2ccc(F)cc2)cc1NC(=O)Nc1ccccc1OC,"inconclusive: 28.2 µM [quencher, side channel, partial curve]",–
COc1ccccc1C1C(C(=O)c2cc3ccccc3o2)=C(O)C(=O)N1CCN(C)C (stereo unspecified),"inconclusive: 44.7 µM [inhibitor, single point]",–
Nc1nc2ccccc2n1C(=O)c1cccs1,"inconclusive: 39.8 µM [inhibitor, single point]",–
CCCC1/C(=N/O)CC(c2ccccc2)NC1c1ccccc1 (stereo unspecified),"inconclusive: 2.82 µM [fluorescent, side channel, full curve]",–
Cc1ccc(Cc2cnc(NC(=O)/C(C#N)=C/c3ccc(-c4ccc([N+](=O)[O-])cc4)o3)s2)cc1,"inconclusive: 3.16 µM [quencher, side channel, full curve]",–
Cc1ccc(Nc2nc(N)c([N+](=O)[O-])c(NCc3ccco3)n2)cc1,"inconclusive: 17.8 µM [quencher, side channel, partial curve]",–
CC(C)CNc1nc(N)c([N+](=O)[O-])c(N2CCCCCC2)n1,"inconclusive: 11.2 µM [inhibitor, partial curve]",–

Compound,Potency,"FP activity change, negative = inhibition"
COc1cc2nc(NC(=O)c3ccc(Cl)cc3)[nH]c(=O)c2cc1OC,"inconclusive: 10 µM [inhibitor, partial curve]",–
COc1ccc(C(=O)N=C2SC3CS(=O)(=O)CC3N2c2ccc(C(C)=O)cc2)cc1 (stereo unspecified),"inconclusive: 39.8 µM [fluorescent, side channel, single point]",–
COC(=O)C1=C(C)N(Cc2ccccc2)C(=NCc2cccc(Cl)c2)N[C@H]1c1cccc(F)c1,"inconclusive: 7.08 µM [inhibitor, partial curve]",–
COc1ccc(NC(=O)c2ccc3[nH]c(C)c(C)c3c2)c(OC)c1,"inconclusive: 15.8 µM [quencher, side channel, partial curve]",–
CN(Cc1ccco1)c1cc(-c2ccoc2)ncn1,"inconclusive: 35.5 µM [fluorescent, side channel, single point]",–
C/C(=N\NC(=O)c1ccc(C)cc1)c1c(C)[nH]n(-c2ccccc2)c1=O,"inconclusive: 6.31 µM [quencher, side channel, partial curve]",–
O=C(Cn1nc2ccccc2n1)N/N=C/c1cc([N+](=O)[O-])ccc1O,"inconclusive: 10 µM [quencher, side channel, partial curve]",–
CCn1c(=O)c(C(=O)CN(C)Cc2cccc(OC)c2OC)c(N)n(Cc2ccccc2)c1=O,"inconclusive: 17.8 µM [inhibitor, partial curve, poor fit]",–
NC(=O)c1ccsc1NC(=O)CSc1nnc(Nc2ccccc2)s1,"inconclusive: 22.4 µM [quencher, side channel, partial curve]",–
Cc1cc(=O)n2c(nc3ccccc32)[nH]1,–,inactive: -14.3%
CCOC(=O)COc1cccc2c(=O)n(CC(=O)N3CCc4ccccc43)ccc12,"inconclusive: 39.8 µM [inhibitor, single point]",–
Cc1cc(N2C(=O)C(=O)/C(=C(/O)c3ccc(F)cc3)C2c2cccc(Br)c2)no1 (stereo unspecified),"inconclusive: 25.1 µM [quencher, side channel, partial curve]",–
CCOC(=O)COn1c(=O)c(-c2cc3ccccc3o2)[n+]([O-])c2ccccc21,"inconclusive: 17.8 µM [quencher, side channel, partial curve]",–
CCN(CC(=O)Nc1ccc(C(=O)OC)cc1)C1CCCCC1,"inconclusive: 8.91 µM [inhibitor, partial curve]",–
COc1cccc(C(=O)/C=C/Nc2ccc(S(=O)(=O)Nc3cccc(C(C)=O)c3)cc2)c1,"inconclusive: 7.08 µM [quencher, side channel, full curve]",–
COC(=O)CCCC1=CC2=CC(=O)C(C)(OC(=O)c3cccs3)C(=O)C2=CN1CCN1CCOCC1 (stereo unspecified),"inconclusive: 3.98 µM [inhibitor, single point]",–
COc1ccc(NC(=O)Cn2cc(S(=O)(=O)Cc3ccccc3)c3ccccc32)c(OC)c1,"inconclusive: 7.94 µM [quencher, side channel, full curve]",–
C#CCOCCOCCOCCNc1nc(N2CCN(C(=O)[C@H](CCCCN)n3cc([C@@H](N)CC(C)C)nn3)CC2)nc(N2CCN(C(=O)[C@H](Cc3cc4ccccc4[nH]3)n3cc([C@@H](N)Cc4ccc(O)cc4)nn3)CC2)n1,"inconclusive: 3.55 µM [fluorescent, side channel, full curve]",–
